# Screen size: about 200,000 compounds; about 10 (0.005%) were called active. The shares of active, inactive and inconclusive entries below differ from those in the screen. Calls come from the whole dose curve; as a rule, active = well fitted inhibition curve with a large enough effect; inconclusive = small, poorly fitted or top-dose-only effect, or effect the other way, or another doubt; inactive = no such curve, though single readings can be large or run the other way. No potency is given beside an inconclusive call; the fits are too rough.
# Target: Lysosomal alpha-glucosidase (Homo sapiens) (UniProt P10253)
# Assay: qHTS Assay for Inhibitors of Human alpha-Glucosidase as a Potential Chaperone Treatment of Pompe Disease;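 for activity change, negative = inhibition: plate controls were uninhibited enzyme wells for no effect and no-enzyme background for full effect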
# Settings: purified human GAA, 4-MU-alpha-glucoside fluorescence; activity change, negative = inhibition: at 76.9 µM (top of the series) unless noted
# Outline: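 Human enzyme at 4 nM with 400 uM 4-methylumbelliferyl-alpha-D-pyranoside, citrate/phosphate buffer pH 5.0, 0.005% Tween-20, 20 min at room temperature. Compounds up to 77 uM. 4-MU fluorescence (Ex 365/Em 440) read after NaOH/glycine stop; AC50 from Hill fit.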
# Potency is the fitted concentration of half-maximal effect; tags give direction and shape of the fitted curve.
Compound,Potency,"activity change, negative = inhibition"
C/C(=N\Nc1nc(C)cc(-c2ccccc2)n1)c1ccc(C)o1,"inconclusive [activator, partial curve]",–
CCOC(=O)C(=O)Nc1cc(C)on1,–,inactive: 12.7%
CCCn1c(SCC(=O)N2CCN(c3ccccc3)CC2)nc2ccccc2c1=O,"inconclusive [inhibitor, partial curve]",–
Cc1cc(C(=O)OCC(=O)NCc2ccc(Cl)cc2)c(C)o1,"inconclusive [inhibitor, single point]",–
Cc1noc(NS(=O)(=O)c2ccc(N/C=C/C(=O)c3ccc(F)cc3)cc2)c1C,–,inconclusive: 0.783% [activator]
CCOC(=O)c1cc2c(=O)n3ccccc3nc2n(CC2CCCO2)c1=NC(C)=O (centres undefined),"inconclusive [activator, partial curve]",–
Cc1cc(C)nc(N2CCN(C(=O)c3ccc(S(=O)(=O)N4CCCCCC4)cc3)CC2)n1,"inconclusive [inhibitor, single point]",–
CCCCNC(=O)CCn1c(=O)c2ccccc2n(CC(=O)NCCc2ccc(OC)c(OC)c2)c1=O,"inconclusive [inhibitor, single point]",–
COc1ccc(C2CC(c3ccccc3)=NN2c2ccc(S(N)(=O)=O)cc2)cc1OC (centres undefined),"inconclusive [activator, partial curve]",–
COc1cccc(C(=O)N2CCCC(c3nc(-c4cccs4)no3)C2)c1 (centres undefined),"inconclusive [inhibitor, partial curve, poor fit]",–
COc1ccc(C(=O)NCc2cccs2)cc1S(=O)(=O)N1CCOCC1,–,inactive: -11.2%
COc1cccc(/C=N/NC(=O)C(=O)Nc2ccccc2OC(F)(F)C(F)F)c1O,"inconclusive [inhibitor, single point]",–
Cc1oc(CC(C)C)cc1C(=O)Nc1ccc(C(=O)O)cc1,"inconclusive [inhibitor, single point]",–
COc1ccc(CNC(=O)c2ccc3c(c2)NC(=O)C(C)S3)cc1 (centres undefined),"inconclusive [inhibitor, single point]",–
CC1CCN(S(=O)(=O)c2ccc(NC(=O)Cc3ccccc3)cc2)CC1,"inconclusive [inhibitor, partial curve, poor fit]",–
CCOCCCn1c(=N)c(C(N)=S)cc2c(=O)n3cccc(C)c3nc21,–,inactive: 3.41%
CSc1nc2c(c(=O)[nH]1)C(c1cccs1)C1=C(CCCC1=O)N2 (centres undefined),"inconclusive [inhibitor, partial curve, poor fit]",–
O=C(Nc1ccc(-c2nnn(CC(=O)N3CCN(C(=O)c4ccco4)CC3)n2)cc1)c1ccc(F)cc1,"inconclusive [inhibitor, partial curve]",–
CCCOc1ccc(C2c3c(oc4cc(C)c(C)cc4c3=O)C(=O)N2CCCN2CCOCC2)cc1 (centres undefined),"inconclusive [inhibitor, partial curve, poor fit]",–
O=C(O)CCSc1nnc(CNc2ccc(Cl)cc2)n1Cc1ccccc1,"inconclusive [inhibitor, full curve, poor fit]",–

Compound,Potency,"activity change, negative = inhibition"
COc1ccc(S(=O)(=O)N(C(C)=O)c2ccc(OC(C)=O)c3ccccc23)cc1[N+](=O)[O-],"inconclusive [inhibitor, single point]",–
Cc1cc(C(=O)COC(=O)c2nccnc2N)c(C)n1C,"inconclusive [activator, single point]",–
CCCSCC(=O)Nc1ncc2c(n1)-c1ccccc1CC2,"inconclusive [inhibitor, single point]",–
C=CCC1(CC=C)CCCN1C(=O)CC1C(=O)NCCN1Cc1cc(OC)cc(OC)c1 (centres undefined),"inconclusive [inhibitor, partial curve, poor fit]",–
CCN1C(=O)/C(=C/c2ccc(C)s2)NC1=S,"inconclusive [inhibitor, single point]",–
Cc1cccc(S(=O)(=O)c2c(N)n(/N=C/c3ccccc3)c3nc4ccccc4nc23)c1,"inconclusive [activator, partial curve, poor fit]",–
C/C(CS(=O)(=O)c1ccccc1)=N\O,–,inconclusive: 19.1% [activator]
COCCNC(=S)N=Nc1c(O)[nH]c2ccc([N+](=O)[O-])cc12,"inconclusive [inhibitor, partial curve, poor fit]",–
Cc1ccc(Nc2nnc(SCc3nc4ccccc4c(=O)[nH]3)s2)cc1,–,inconclusive: 15.1% [activator]
FC(F)(F)c1cccc(CNc2ncccc2-c2nc3cc(Cl)ccc3o2)c1,"inconclusive [activator, partial curve]",–
COCCn1c(=NC(=O)c2ccc3c(c2)OCO3)c(C#N)cc2c(=O)n3cccc(C)c3nc21,"inconclusive [activator, single point]",–
CCN(CC(=O)Nc1c(F)cccc1F)C(=O)COc1ccc2c(C)cc(=O)oc2c1,–,inconclusive: 18.2% [activator]
CCOc1ccc(S(=O)(=O)Nc2ccccc2C(=O)NCc2ccco2)cc1,–,inconclusive: -16% [inhibitor]
Cc1ccccc1NCC(=O)N/N=C/c1c[nH]c2ccccc12,"inconclusive [inhibitor, single point]",–
COc1ccc(CCNC2=C(Cl)C(=O)N(Cc3ccccc3)C2=O)cc1OC,"inconclusive [inhibitor, single point]",–
Cc1csc(SCC(=O)Nc2ccc(S(=O)(=O)N3CCCC3)cc2)n1,"inconclusive [inhibitor, single point]",–
Cc1cc(=O)oc2c(CN3CCC(C)CC3)c(O)c(Cl)cc12,"inconclusive [activator, partial curve]",–
N#Cc1c(-c2cccs2)cc(-c2ccccn2)nc1N,"inconclusive [activator, partial curve]",–
Cc1ccc2c(c1)nnn2C1CCN(S(=O)(=O)c2cccc(S(=O)(=O)N(C)C)c2)CC1,"inconclusive [inhibitor, partial curve]",–

# Reference: PubChem BioAssay AID1466 (National Center for Advancing Translational Sciences (NCATS), 2008)
